Test results: the supplement of paper PMC4967469
Lines with a small IC50 respond at low doses; fits outside the tested doses are given as limits. The AUC spans the tested range (256-fold, ending at the top dose) of the same fit; the more sensitive the line, the further below 1. For some assays here: Any top dose called inferred is not printed in the source and was worked back from the curve model.

Experiments:
Assay in all cases: Viability of human cancer cell lines after 72 h of drug (GDSC screen)
Mitomycin C = compound: CO[C@@]12[C@H](COC(N)=O)C3=C(C(=O)C(C)=C(N)C3=O)N1C[C@@H]1N[C@@H]12 [Mitomycin C]; conditions: top dose 16 µM
Experimental: (§1)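 Human cancer cell lines in 384-well plates, medium with 10% serum, drug for 72 h over a 256-fold dose range (nine 2-fold or five 4-fold steps up to the top dose). Adherent lines were fixed and stained with the nucleic acid dye Syto60, suspension lines read with resazurin; signal relative to control wells, capped at 0 and 100%. One two-parameter sigmoid per drug and line, fitted in a mixed model over all curves with the slope shared within a line.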

Midostaurin = compound: CO[C@@H]1[C@H](N(C)C(=O)c2ccccc2)C[C@H]2O[C@]1(C)n1c3ccccc3c3c4c(c5c6ccccc6n2c5c31)C(=O)NC4 [Midostaurin]; conditions: top dose 0.512 µM; top dose inferred
Experimental: as §1

Bosutinib = compound: COc1cc(Nc2c(C#N)cnc3cc(OCCCN4CCN(C)CC4)c(OC)cc23)c(Cl)cc1Cl [Bosutinib]; conditions: top dose 2 µM
Experimental: as §1

Roscovitine = compound: CC[C@H](CO)Nc1nc(NCc2ccccc2)c2ncn(C(C)C)c2n1 [Roscovitine]; conditions: top dose 16 µM; top dose inferred
Experimental: as §1

NVP-BHG712 = compound: Cc1ccc(C(=O)Nc2cccc(C(F)(F)F)c2)cc1Nc1nc(-c2cccnc2)nc2c1cnn2C [NVP-BHG712]; conditions: top dose 10.24 µM; top dose inferred
Experimental: as §1

IOX2 = compound: O=C(O)CNC(=O)c1c(O)c2ccccc2n(Cc2ccccc2)c1=O [IOX2]; conditions: top dose 0.1 µM; top dose inferred
Experimental: as §1

Cell Line | AUC (Mitomycin C) | IC50 (Mitomycin C) [µM] | AUC (Midostaurin) | IC50 (Midostaurin) [µM] | AUC (Bosutinib) | IC50 (Bosutinib) [µM] | AUC (Roscovitine) | IC50 (Roscovitine) [µM] | AUC (NVP-BHG712) | IC50 (NVP-BHG712) [µM] | AUC (IOX2) | IC50 (IOX2) [µM]
MS-1 (small cell lung carcinoma, suspension) | 0.46 | 0.786 | 0.969 | > 0.512 | 0.991 | > 2 | 0.936 | > 16 | 0.942 | > 10.2 | 0.991 | > 0.1
LU-165 (small cell lung carcinoma, suspension) | 0.416 | 0.57 | 0.97 | > 0.512 | 0.988 | > 2 | 0.981 | > 16 | 0.958 | > 10.2 | 0.986 | > 0.1
COR-L95 (small cell lung carcinoma, adherent) | 0.59 | 1.84 | 0.986 | > 0.512 | 0.987 | > 2 | 0.977 | > 16 | 0.966 | > 10.2 | 0.985 | > 0.1
SU-DHL-4 (B-cell lymphoma, suspension) | 0.599 | 1.73 | 0.996 | > 0.512 | 0.975 | > 2 | 0.917 | 11.6 | 0.834 | 4.22 | 0.997 | > 0.1
ONS-76 (medulloblastoma, adherent) | 0.336 | 0.337 | 0.812 | 0.302 | 0.806 | 1.11 | 0.961 | > 16 | 0.906 | > 10.2 | 0.983 | > 0.1
COLO-800 (melanoma, adherent) | 0.174 | 0.108 | 0.953 | > 0.512 | 0.963 | > 2 | 0.985 | > 16 | 0.965 | > 10.2 | 0.982 | > 0.1
TGBC1TKB (biliary tract, adherent) | 0.527 | 1.19 | 0.953 | > 0.512 | 0.989 | > 2 | 0.978 | > 16 | 0.969 | > 10.2 | 0.988 | > 0.1
ES6 (Ewing sarcoma, adherent) | 0.454 | 0.728 | 0.934 | > 0.512 | 0.932 | > 2 | 0.922 | > 16 | 0.958 | > 10.2 | 0.942 | > 0.1
LB373-MEL-D (melanoma, adherent) | 0.348 | 0.382 | 0.984 | > 0.512 | 0.99 | > 2 | 0.977 | > 16 | 0.956 | > 10.2 | 0.977 | > 0.1
KINGS-1 (glioma, adherent) | 0.806 | 12.1 | 0.873 | > 0.512 | 0.953 | > 2 | 0.974 | > 16 | 0.951 | > 10.2 | 0.939 | > 0.1
ML-2 (acute myeloid leukaemia, suspension) | 0.073 | < 0.0625 | 0.888 | 0.466 | 0.986 | > 2 | 0.955 | > 16 | 0.733 | 2.7 | 0.989 | > 0.1
LU-139 (small cell lung carcinoma, suspension) | 0.516 | 1.12 | 0.967 | > 0.512 | 0.918 | > 2 | 0.921 | > 16 | 0.894 | > 10.2 | 0.974 | > 0.1
JJN-3 (haematopoietic neoplasm, suspension) | 0.708 | 3.38 | 0.964 | > 0.512 | 0.972 | > 2 | 0.938 | > 16 | 0.829 | 4.88 | 0.985 | > 0.1
TE-1 (oesophagus, adherent) | 0.24 | 0.142 | 0.939 | > 0.512 | 0.922 | > 2 | 0.932 | > 16 | 0.982 | > 10.2 | 0.966 | > 0.1
SF126 (glioma, adherent) | 0.565 | 1.52 | 0.78 | 0.223 | 0.915 | > 2 | 0.957 | > 16 | 0.986 | > 10.2 | 0.945 | > 0.1
NCI-H747 (large intestine, adherent) | 0.356 | 0.366 | 0.914 | > 0.512 | 0.972 | > 2 | 0.949 | > 16 | 0.764 | 4.5 | 0.979 | > 0.1
MDST8 (large intestine, adherent) | 0.627 | 2.24 | 0.966 | > 0.512 | 0.885 | > 2 | 0.956 | > 16 | 0.784 | 4.31 | 0.977 | > 0.1
MOLP-8 (myeloma, suspension) | 0.306 | 0.293 | 0.715 | 0.126 | 0.949 | > 2 | 0.767 | 5.73 | 0.609 | 1.26 | 0.985 | > 0.1
HC-1 (hairy cell leukaemia, suspension) | 0.222 | 0.161 | 0.922 | > 0.512 | 0.969 | > 2 | 0.916 | > 16 | 0.787 | 4.26 | 0.984 | > 0.1
NCI-H69 (small cell lung carcinoma, suspension) | 0.575 | 1.65 | 0.907 | > 0.512 | 0.986 | > 2 | 0.98 | > 16 | 0.982 | > 10.2 | 0.982 | > 0.1
ARH-77 (myeloma, suspension) | 0.301 | 0.282 | 0.964 | > 0.512 | 0.985 | > 2 | 0.954 | > 16 | 0.88 | 10 | 0.987 | > 0.1

Cell Line | AUC (Mitomycin C) | IC50 (Mitomycin C) [µM] | AUC (Midostaurin) | IC50 (Midostaurin) [µM] | AUC (Bosutinib) | IC50 (Bosutinib) [µM] | AUC (Roscovitine) | IC50 (Roscovitine) [µM] | AUC (NVP-BHG712) | IC50 (NVP-BHG712) [µM] | AUC (IOX2) | IC50 (IOX2) [µM]
SNU-C1 (large intestine, suspension) | 0.591 | 2 | 0.932 | > 0.512 | 0.917 | > 2 | 0.94 | > 16 | 0.967 | > 10.2 | 0.971 | > 0.1
ME-1 (acute myeloid leukaemia, suspension) | 0.672 | 3.13 | 0.988 | > 0.512 | 0.959 | > 2 | 0.989 | > 16 | 0.605 | 1.27 | 0.988 | > 0.1
JVM-3 (lymphoid neoplasm, suspension) | 0.652 | – | 0.985 | > 0.512 | 0.752 | 0.673 | 0.987 | > 16 | 0.887 | > 10.2 | 0.982 | > 0.1
IMR-5 (neuroblastoma, adherent) | 0.036 | < 0.0625 | 0.891 | 0.432 | 0.978 | > 2 | 0.954 | > 16 | 0.937 | > 10.2 | 0.991 | > 0.1
AMO-1 (haematopoietic neoplasm, suspension) | 0.399 | 0.55 | 0.99 | > 0.512 | 0.956 | > 2 | 0.955 | > 16 | 0.762 | 3.19 | 0.985 | > 0.1
NB(TU)1-10 (neuroblastoma, adherent) | 0.316 | 0.331 | 0.949 | > 0.512 | 0.985 | > 2 | 0.943 | > 16 | 0.626 | 1.35 | 0.989 | > 0.1
HCC2218 (breast, suspension) | 0.418 | 0.563 | 0.98 | > 0.512 | 0.963 | > 2 | 0.876 | > 16 | 0.934 | > 10.2 | 0.982 | > 0.1
OCI-AML5 (acute myeloid leukaemia, suspension) | 0.198 | 0.142 | 0.868 | 0.399 | 0.942 | > 2 | 0.957 | > 16 | 0.716 | 2.45 | 0.987 | > 0.1
SU-DHL-16 (B-cell lymphoma, suspension) | 0.35 | 0.435 | 0.822 | 0.199 | 0.804 | 0.696 | 0.975 | > 16 | 0.265 | 0.172 | 0.996 | > 0.1
REH (B-cell leukaemia, suspension) | 0.098 | < 0.0625 | 0.882 | 0.503 | 0.94 | > 2 | 0.982 | > 16 | 0.948 | > 10.2 | 0.986 | > 0.1
D-392MG (glioma, adherent) | 0.725 | 5.58 | 0.77 | 0.269 | 0.948 | > 2 | 0.945 | > 16 | 0.855 | > 10.2 | 0.952 | > 0.1
NCI-H209 (small cell lung carcinoma, suspension) | 0.069 | < 0.0625 | 0.983 | > 0.512 | 0.69 | 0.446 | 0.927 | > 16 | 0.937 | > 10.2 | 0.98 | > 0.1
697 (lymphoblastic leukaemia, suspension) | 0.032 | < 0.0625 | 0.775 | 0.162 | 0.573 | 0.19 | 0.85 | 8.61 | 0.8 | 3.86 | 0.991 | > 0.1
HDLM-2 (Hodgkin lymphoma, suspension) | 0.554 | 1.4 | 0.959 | > 0.512 | 0.852 | 1.51 | 0.98 | > 16 | 0.986 | > 10.2 | 0.981 | > 0.1
CTV-1 (acute myeloid leukaemia, suspension) | 0.117 | 0.0879 | 0.938 | > 0.512 | 0.438 | 0.0878 | 0.923 | > 16 | 0.098 | 0.047 | 0.992 | > 0.1
LXF-289 (lung adenocarcinoma, adherent) | 0.126 | 0.0663 | 0.766 | 0.186 | 0.88 | > 2 | 0.943 | > 16 | 0.94 | > 10.2 | 0.985 | > 0.1
NCI-H1666 (lung adenocarcinoma, semi-adherent) | 0.557 | 1.46 | 0.979 | > 0.512 | 0.919 | > 2 | 0.986 | > 16 | 0.976 | > 10.2 | 0.985 | > 0.1
CW-2 (large intestine, adherent) | 0.818 | 9.91 | 0.988 | > 0.512 | 0.989 | > 2 | 0.913 | > 16 | 0.966 | > 10.2 | 0.987 | > 0.1
NH-12 (neuroblastoma, adherent) | 0.239 | 0.157 | 0.871 | > 0.512 | 0.957 | > 2 | 0.985 | > 16 | 0.795 | 5.41 | 0.982 | > 0.1
L-1236 (Hodgkin lymphoma, suspension) | 0.619 | 2.01 | 0.988 | > 0.512 | 0.927 | > 2 | 0.939 | > 16 | 0.964 | > 10.2 | 0.992 | > 0.1
NCI-H847 (small cell lung carcinoma, adherent) | 0.372 | 0.479 | 0.924 | > 0.512 | 0.992 | > 2 | 0.906 | 14.4 | 0.817 | 4.38 | 0.985 | > 0.1
